Results: patent publication US20170281768A1 (COVAGEN, published 2017)

Target: T1, HER2 on HER2-expressing human tumor cells (SKOV-3, BT-474, NCI-N87, MCF-7) (human, UniProt P04626)
T1 construct: Endogenous HER2 of human tumor cell lines; also called HER2/neu; ErbB-2
Assay: FACS on HER2-overexpressing BT-474 cells; 300 nM G10 (myc-His tagged) plus 20 nM mouse anti-myc 9E10, detected with anti-mouse IgG-Alexa488; preblock with 1 uM anti-HER2 antibody 1, anti-HER2 antibody 2 or PBS

B1: Fyn SH3-derived polypeptide G10 (designed binder)
chain: GVTLFVALYDYEARDSMGGQDLSFHKGEKFQILKRWRGGDWWEARSLTTGETGYIPSNYVAPVDSIQGEQKLISEEDLHHHHHH
notes: Expressed in E. coli from pQE12
- binding result: binds
